Source: PubChem BioAssay AID1030 (National Center for Advancing Translational Sciences (NCATS), 2008)
Where “and” joins values, the source holds several entries; their conditions need not be identical. Identical values can stand only once. Among all 220,000 compounds or so, about 16,000 (7.3%) were called active. The shares of active, inactive and inconclusive entries below differ from those in the screen. Calls follow the shape of the dose curve; as a rule, active = well fitted inhibition curve with a large enough effect (not every such curve was filed as active); inconclusive = small, poorly fitted or top-dose-only effect, or another doubt; inactive = no such curve, though single readings can be large or run the other way. Potencies of inconclusive entries are left out as doubtful fits. Some structures have more than one record in an assay (separate samples or runs), and their calls can disagree.

Molecular target: Aldehyde dehydrogenase 1A1 (Homo sapiens) (UniProt P00352)
Sequence of UniProt P00352 (P00352 whole entry, looked up): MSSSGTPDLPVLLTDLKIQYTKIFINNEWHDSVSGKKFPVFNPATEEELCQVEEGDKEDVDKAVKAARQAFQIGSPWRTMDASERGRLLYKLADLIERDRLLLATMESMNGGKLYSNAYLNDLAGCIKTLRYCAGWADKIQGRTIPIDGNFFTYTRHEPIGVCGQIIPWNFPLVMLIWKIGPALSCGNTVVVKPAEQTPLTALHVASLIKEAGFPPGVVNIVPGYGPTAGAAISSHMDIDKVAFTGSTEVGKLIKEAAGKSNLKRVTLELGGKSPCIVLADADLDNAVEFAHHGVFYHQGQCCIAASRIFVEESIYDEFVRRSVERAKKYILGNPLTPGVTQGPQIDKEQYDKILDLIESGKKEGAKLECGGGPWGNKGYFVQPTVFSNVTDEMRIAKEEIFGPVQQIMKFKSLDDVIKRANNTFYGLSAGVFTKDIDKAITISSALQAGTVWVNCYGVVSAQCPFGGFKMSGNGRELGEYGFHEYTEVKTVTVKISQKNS
Assay: qHTS Assay for Inhibitors of Aldehyde Dehydrogenase 1 (ALDH1A1);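 as to activity, negative = inhibition: plate controls were no enzyme wells and a reference inhibitor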
Conditions: Purified ALDH1A1, NADH fluorescence, propionaldehyde substrate; series mostly up to 75.3 µM; activity, negative = inhibition: at the top concentration
Potency is read from the fitted curve at half-maximal effect; tags tell the direction and shape of the fitted curve.

Row | SMILES | Potency | activity, negative = inhibition
1 | Cc1cc(C(=O)CS(=O)(=O)c2ccccc2)cc(C)c1OC(=O)N(C)C | inconclusive [inhibitor, single point] | 
2 | CC(=O)Nc1ccc(OC(=O)c2ccccc2N)cc1 | inconclusive [inhibitor, partial curve] | 
3 | CC(C)n1c(=O)c(C=Nc2ccc(Cl)cc2)c(O)n(Cc2ccco2)c1=O | inconclusive [inhibitor, partial curve] | 
4 | COc1cccc(CCNCc2ccc(SC)cc2)c1 | inconclusive [inhibitor, single point] | 
5 | CCNC(C)(C)[C@@H](SS)c1ccc(Br)cc1 | inconclusive [inhibitor, single point] | 
6 | CN1CCc2nc(SCC(=O)OC(C)(C)C)c(C#N)cc2C1 | inconclusive [inhibitor, single point] | 
7 | CC(C)N1C(=O)/C(=C/C=C/c2ccco2)C(=O)N(Cc2ccco2)C1=O | active: 22.4 µM | 
8 | Cc1c(N=Nc2c(O)[nH]c(=S)[nH]c2=O)c(=O)n(-c2ccccc2)n1C | active: 22.4 µM | 
9 | CN1CCN(c2ncnc(Cl)c2N)CC1 |  | inactive: 6.2%
10 | CC(=O)NN1C(=O)c2ccccc2NC1c1cccnc1 (stereo not given) | inconclusive [inhibitor, partial curve] | 
11 | O=Cc1cn(Cc2ccccc2[N+](=O)[O-])c2ccccc12 | active: 1.26 µM | 
12 | C1CCOC1 | inconclusive [inhibitor, single point] | 
13 | CCOP(=O)(/C(C#N)=C(\C)O)c1ccccc1 (stereo not given) | inconclusive [inhibitor, single point] | 
14 | COc1ccc(NC(=S)NC(NC(=O)CF)C(Cl)(Cl)Cl)c([N+](=O)[O-])c1 (stereo not given) | inconclusive [inhibitor, single point] | 
15 | Cc1cc(N2C(=O)CC(N3CCC(n4c(=O)[nH]c5ccccc54)CC3)C2=O)no1 (stereo not given) | inconclusive [inhibitor, partial curve] | 
16 | CCCCCCn1c(N)c(C(=O)NCCN2CCOCC2)c2nc3ccccc3nc21 | inconclusive [inhibitor, partial curve] | 
17 | NC1=C(Br)C(=O)c2ccccc2C1=O | inconclusive [inhibitor, single point] | 
18 | Cc1cc(=O)[nH]c(CCl)n1 |  | inactive: -11.7%
19 | Brc1c(Br)c(Br)c2n[nH]nc2c1Br | inconclusive [inhibitor, single point] | 
20 | Nc1ccc(S(=O)(=O)c2ccc(NCN3C(=O)NC(=O)C(=O)C3=O)cc2)cc1 |  | inactive: 9.29% [at 13.5 µM]
21 | NCCc1ccccn1 |  | inactive: 6.27%
22 | CC[C@@H]1CN2CC[C@@H]1C[C@H]2[C@H](O)c1ccnc2ccc(OC)cc12 | inconclusive [inhibitor, single point] | 
23 | CCOc1cc(C=C2C(=O)NC(=O)NC2=O)cc([N+](=O)[O-])c1O | active: 28.2 µM | 
24 | O=C1NC(=O)C2(Cc3ccccc3N3CCCC32)C(=O)N1 (stereo not given) | inconclusive [inhibitor, single point] | 
25 | CCCSC(=O)Cl |  | inactive: -21%
26 | OC(CCNCCc1c[nH]c2ccccc12)C(F)(F)Cl (stereo not given) | inconclusive [inhibitor, single point] | 
27 | NC1CCC(CC2CCC(N)CC2)CC1 (stereo not given) |  | inactive: 2.17%

Row | SMILES | Potency | activity, negative = inhibition
28 | c1ccc2c(CN3CCN(C4CCCCC4)CC3)c[nH]c2c1 | inconclusive [inhibitor, partial curve] | 
29 | CCCCCCC(=O)N/N=C/c1c(O)n(CCCC)c(=S)[nH]c1=O |  | inactive: 8.81%
30 | COc1ccc(C2CN(C)CC2C(=O)c2ccc(C)cc2)cc1Cl (stereo not given) | inconclusive [inhibitor, single point] | 
31 | CSSC |  | inactive: 2.77%
32 | COc1cc(C=C2C(=O)NC(=O)NC2=O)ccc1OCc1ccc([N+](=O)[O-])cc1 | active: 15 µM | 
33 | CN(C)/C=c1\sc2c(C#N)cc(C(=O)c3ccc(Br)cc3)n2c1=O | active: 2 µM | 
34 | CC1=CC(c2ccccc2)NC(=S)N1 (stereo not given) | active: 7.08 µM | 
35 | c1ccoc1 |  | inactive: 7.66%
36 | O=[As](O)(O)c1ccc(Cc2ccc([As](=O)(O)O)cc2)cc1 | active: 2.24 µM | 
37 | COc1ccc2cc(C(=O)C3CCCN(C4CCOCC4)C3)ccc2c1 (stereo not given) | inconclusive [inhibitor, partial curve] | 
38 | CC1(C)C(C=C(Cl)Cl)C1C(=O)OC(C#N)c1cccc(Oc2ccccc2)c1 (stereo not given) | active: 25.1 µM | 
39 | CC(=O)N1CCN(c2ccc(N=Cc3c(O)n(Cc4ccccc4)c(=O)[nH]c3=O)cc2)CC1 | inconclusive [inhibitor, single point] | 
40 | COc1cc(/C=C2\C(=O)NC(=O)N(c3ccccc3)C2=O)cc(OC)c1O | inconclusive [inhibitor, single point] | 
41 | CCOc1cc(/C=C2/C(=O)NC(=O)N(c3ccc(CC)cc3)C2=O)ccc1OC(=O)c1cccs1 | inconclusive [inhibitor, single point] | 
42 | Cc1cccc(N2C(=O)NC(=O)/C(=C\c3cnc(-c4ccccc4)nc3)C2=O)c1 | active: 11.2 µM | 
43 | CC(=O)N1CC2CC(C1)c1cccc(=O)n1C2 (stereo not given) |  | inactive: -1.14%
44 | Cc1cc(/C=C2\C(=O)NC(=O)N(c3ccc(Br)cc3)C2=O)c(C)n1C | inconclusive [inhibitor, single point] | 
45 | O=c1c2ccccc2nc(/C=C/c2cccnc2)n1Cc1ccccc1 | active: 5.01 µM | 
46 | Cc1cccc(C)c1OCc1n[nH]c(=S)n1N | active: 25.1 µM | 
47 | Cc1cc(OCCCC(=O)NCc2cccs2)ccc1Cl |  | inactive: 11.3%
48 | O=C(c1cc(Br)ccc1Cl)N1CCC2(CC1)OCCO2 |  | inactive: 2.36%
49 | Cc1ccccc1N1C(=O)NC(=O)/C(=C\c2ccc3c(c2)CCCN3Cc2ccccc2)C1=O | inconclusive [inhibitor, single point] | 
50 | CNC(=O)O/N=C/C(C)(C)S(C)=O (stereo not given) | active: 28.2 µM | 
51 | CCOC(=O)c1c(-c2ccccc2)oc2ccc(OC(=O)N(C)C)cc12 | inconclusive [inhibitor, partial curve] | 
52 | O=c1c2ccccc2nc(CNCc2ccco2)n1-c1ccc(F)cc1 |  | inactive: 0.201%
53 | CN1CC(C(=O)c2ccccc2)C(C(=O)c2ccccc2)C1 (stereo not given) |  | inactive: -4.61%
54 | O=c1oc(Cl)c(Cl)c2ccccc12 | active: 282 nM and active: 562 nM | 

Row | SMILES | Potency | activity, negative = inhibition
55 | COc1cc2[nH]c(=S)n(-c3ccccc3)c(=O)c2cc1OC | active: 1.58 µM | 
56 | CC/C=C\C/C=C\C/C=C\C/C=C\C/C=C\CCCC(=O)NCCO |  | inactive: 0.462%
57 | CC1=C(O)C(=O)C=C2C1=CC=C1[C@]2(C)CC[C@@]2(C)C3C[C@](C)(C(=O)O)CC[C@@]3(C)CC[C@@]12C (stereo not given in full) |  | inactive: -5.78%
58 | COc1ccc(N2C(=O)CC(N3CC=C(c4ccccc4)CC3)C2=O)cc1 (stereo not given) | active: 10 µM | 
59 | CC(C)CCON=O | inconclusive [inhibitor, single point] | 
60 | Oc1ccc(CC2CC3CCN2CC3)cc1O (stereo not given) |  | inactive: 7.73%
61 | C/C(=C\c1ccc(N(C)C)cc1)[N+](=O)[O-] | inconclusive [inhibitor, single point] | 
62 | O=C1NC(=O)C(=Cc2cn(CCOc3ccc4c(c3)OCO4)c3ccccc23)C(=O)N1 | inconclusive [inhibitor, partial curve] | 
63 | Cc1ccc(-c2nc(N3CCOCC3)s[n+]2-c2ccccc2)cc1 | active: 2.51 µM | 
64 | Cc1ccc(N(C)C(=O)Oc2cccc3ccc(C)nc23)cc1 |  | inactive: 6.33%
65 | Cc1ccc(N)cc1C | inconclusive [inhibitor, single point] | 
66 | CCn1c(O)c(C=Nc2ccc(S(N)(=O)=O)cc2)c(=O)n(CC)c1=S | inconclusive [inhibitor, partial curve] | 
67 | CNC(C(=O)c1ccccc1)C(OC(C)C)c1ccc(Cl)cc1 (stereo not given) | inconclusive [inhibitor, single point] | 
68 | Cc1ccc(NC(=O)CSc2nnc([C@@H](N)Cc3c[nH]c4ccccc34)o2)c(C)c1 | active: 25.1 µM | 
69 | O=C(CCn1c(=O)oc2ccccc21)N1CCC2(CC1)OCCO2 | inconclusive [inhibitor, single point] | 
70 | CCC(N)C(O)c1ccc(O)c(O)c1 (stereo not given) |  | inactive: -9.22%
71 | CN(C)c1ccc(N=Nc2ccccc2)cc1 | inconclusive [inhibitor, single point] | 
72 | COc1cccc(N2C(=O)NC(=O)/C(=C/c3ccc4c5c(cccc35)CC4)C2=O)c1 | inconclusive [inhibitor, partial curve] | 
73 | Cc1cc(/C=C2\C(=O)NC(=O)N(Cc3ccco3)C2=O)c(C)n1-c1ccc(O)cc1 | inconclusive [inhibitor, single point] | 
74 | Cc1cc(/C=C2\C(=O)NC(=O)N(c3ccc(F)cc3)C2=O)c(C)n1-c1ccc(C(=O)O)cc1 | active: 7.94 µM | 
75 | COC(=O)COc1cc(C)cc2oc(=O)c3c(c12)CCCC3 | inconclusive [inhibitor, partial curve] | 
76 | O=C1/C(=C\c2cc3c(cc2Cl)OCO3)N2CCC1CC2 |  | inactive: -9.68%
77 | C=CCCl |  | inactive: 5.87%
78 | CC(C)CC(C)Nc1ccc(Nc2ccccc2)cc1 (stereo not given) | active: 14.1 µM | 
79 | COP(=S)(OC)SCN1C(=O)c2ccccc2C1=O | inconclusive [inhibitor, partial curve, poor fit] | 
80 | C[C@H](CCC(=O)O)C[C@H](C)C[C@H](C)C(=O)/C=C(\O)[C@H](C)C[C@H](C)C/C=C/[C@@H](C)[C@@H](O)[C@@H](C)[C@@H](O)C[C@@H]1CC[C@@](C)(C2CC[C@@](C)([C@@H](C)O)O2)O1 (stereo not given in full) | inconclusive [inhibitor, single point] | 
